Data on 58 variants can be found in the supplement of paper PMC11125491.

± gives the standard deviation of the averaged measurements. Growth of baker's yeast expressing single-residue variants of Pneumocystis jirovecii dihydrofolate reductase in 8.8 or 44 µM methotrexate (about 75% and 90% inhibition of the wild type). Selection coefficient per generation; 0 = like wild type, above 0 = less sensitive, below 0 = more sensitive or loss of function. No active / inactive call per row; the paper calls resistant above 0.220 (8.8 µM) or 0.243 (44 µM) together with a significance test. At 44 µM about 15% of codons end with one read or none, so the lowest values are floors (replicate rank correlation 0.74; 0.94 at 8.8 µM).

B1: UniProt A0EPZ9; numbered along this chain (parent)
chain: MDWQKSLTLIVALTLSRGIGLKNDLPWKLKSDMMFFSRVTSGLLVTRSTGQMNVVLMGRKTWESLPAHSRPLKNRINVVISRQEVLDLGGGAYHARSLDDALALLSQIYDSTSKIQLNRVFVIGGGELCKAAMEHSRLNRIIATVIHNEVDCDVFFPIDFRSSQSCLPWRKQDHSVLEAWVGSKVPQGKINENGFIYEFEMWIRDI

In the data set the parent is B1. Kind of data set: selection coefficient against synonymous wild-type codons (log2 per generation); higher = faster growth than wild type. The settings on record: with Saccharomyces cerevisiae carrying the variant on a plasmid. The method, then:
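Pooled growth of yeast carrying single-residue variants of P. jirovecii dihydrofolate reductase (own DFR1 gene intact), two passages at 30 °C, three cultures, sequenced before and after. Codons with under 15 starting reads are left out; codons of one change are averaged.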

Take L29V: the “selection coefficient against synonymous wild-type codons (log2)” value (shortened to “selection coefficient … (log2)”) by setting is: (methotrexate 8.8 µM) 0.0799 ± 0.021; (methotrexate 44 µM) 0.0463 ± 0.075.

In the case of L29E, the “selection coefficient … (log2)” value by setting is: (methotrexate 8.8 µM) 0.357 ± 0.019; (methotrexate 44 µM) 0.386 ± 0.031.

As to D205Y, the “selection coefficient … (log2)” value (methotrexate 8.8 µM) is -0.467 ± 0.043 and the “selection coefficient … (log2)” value (methotrexate 44 µM) was -0.479 ± 0.08.

With S111Y, the “selection coefficient … (log2)” value reads like this: (methotrexate 8.8 µM) -0.226 ± 0.04; (methotrexate 44 µM) -0.00109 ± 0.12.

S111R: the “selection coefficient … (log2)” value is -0.0942 ± 0.062 (methotrexate 8.8 µM) and -0.109 ± 0.1 (methotrexate 44 µM).

Regarding I10W, the “selection coefficient … (log2)” value runs as follows: (methotrexate 8.8 µM) 0.566 ± 0.021; (methotrexate 44 µM) 0.805 ± 0.021.

For the variant S165G, the “selection coefficient … (log2)” value by setting is: (methotrexate 8.8 µM) 0.0252 ± 0.035; (methotrexate 44 µM) -0.0291 ± 0.093.

For the variant V120Q, the “selection coefficient … (log2)” value is -0.801 ± 0.032 (methotrexate 8.8 µM) and -0.297 ± 0.043 (methotrexate 44 µM).

As to D32V, the “selection coefficient … (log2)” value is, setting by setting: (methotrexate 8.8 µM) -0.386 ± 0.24; (methotrexate 44 µM) -0.129 ± 0.3.

For D32C, the “selection coefficient … (log2)” value runs as follows: (methotrexate 8.8 µM) -0.494 ± 0.16; (methotrexate 44 µM) -0.0999 ± 0.14.

On to D32Y, for which the “selection coefficient … (log2)” value by setting is: (methotrexate 8.8 µM) -0.506 ± 0.13; (methotrexate 44 µM) -0.234 ± 0.15.

As for H174G, the “selection coefficient … (log2)” value runs as follows: (methotrexate 8.8 µM) -0.0556 ± 0.031; (methotrexate 44 µM) -0.202 ± 0.18.

For the variant H174M, the “selection coefficient … (log2)” value (methotrexate 8.8 µM) was -0.164 ± 0.11 and the “selection coefficient … (log2)” value (methotrexate 44 µM) is -0.312 ± 0.2.

Consider G125V, for which the “selection coefficient … (log2)” value is, setting by setting: (methotrexate 8.8 µM) -0.714 ± 0.096; (methotrexate 44 µM) -0.403 ± 0.081.

As to D2I, the “selection coefficient … (log2)” value was 0.0857 ± 0.021 (methotrexate 8.8 µM) and -0.074 ± 0.05 (methotrexate 44 µM).

Regarding K60D, the “selection coefficient … (log2)” value stood at 0.341 ± 0.031 (methotrexate 8.8 µM) and 0.467 ± 0.037 (methotrexate 44 µM).

For the variant K60H, the “selection coefficient … (log2)” value is, setting by setting: (methotrexate 8.8 µM) -0.0536 ± 0.059; (methotrexate 44 µM) -0.0709 ± 0.17.

As for L25A, the “selection coefficient … (log2)” value by setting is: (methotrexate 8.8 µM) -0.183 ± 0.095; (methotrexate 44 µM) -0.18 ± 0.16.

Regarding V54D, the “selection coefficient … (log2)” value runs as follows: (methotrexate 8.8 µM) -0.582 ± 0.1; (methotrexate 44 µM) -0.335 ± 0.11.

With V54H, the “selection coefficient … (log2)” value was -0.492 ± 0.071 (methotrexate 8.8 µM) and -0.245 ± 0.059 (methotrexate 44 µM).

In the case of N139D, the “selection coefficient … (log2)” value (methotrexate 8.8 µM) is -0.00332 ± 0.025 and the “selection coefficient … (log2)” value (methotrexate 44 µM) was determined as 0.0405 ± 0.019.

For the variant N139V, the “selection coefficient … (log2)” value is -0.315 ± 0.036 (methotrexate 8.8 µM) and -0.222 ± 0.11 (methotrexate 44 µM).

Regarding I142M, the “selection coefficient … (log2)” value turned out to be 0.0728 ± 0.025 (methotrexate 8.8 µM) and 0.212 ± 0.043 (methotrexate 44 µM).

For I142L, the “selection coefficient … (log2)” value (methotrexate 8.8 µM) was -0.0423 ± 0.059 and the “selection coefficient … (log2)” value (methotrexate 44 µM) was found to be 0.0628 ± 0.19.

Turning to I142K, the “selection coefficient … (log2)” value (methotrexate 8.8 µM) is -0.679 ± 0.084 and the “selection coefficient … (log2)” value (methotrexate 44 µM) is -0.289 ± 0.07.

With M57D, the “selection coefficient … (log2)” value runs as follows: (methotrexate 8.8 µM) -0.593 ± 0.05; (methotrexate 44 µM) -0.261 ± 0.17.

As to V145P, the “selection coefficient … (log2)” value is -0.099 ± 0.04 (methotrexate 8.8 µM) and 0.00469 ± 0.037 (methotrexate 44 µM).

With V150Y, the “selection coefficient … (log2)” value by setting is: (methotrexate 8.8 µM) 0.0608 ± 0.018; (methotrexate 44 µM) 0.00409 ± 0.15.

With V150W, the “selection coefficient … (log2)” value stood at 0.0816 ± 0.066 (methotrexate 8.8 µM) and 0.0234 ± 0.049 (methotrexate 44 µM).

As to P157I, the “selection coefficient … (log2)” value by setting is: (methotrexate 8.8 µM) -0.599 ± 0.046; (methotrexate 44 µM) -0.23 ± 0.031.

As for A131P, the “selection coefficient … (log2)” value (methotrexate 8.8 µM) is -0.531 ± 0.16 and the “selection coefficient … (log2)” value (methotrexate 44 µM) is -0.289 ± 0.085.

Consider T144K, for which the “selection coefficient … (log2)” value is -0.73 ± 0.043 (methotrexate 8.8 µM) and -0.227 ± 0.059 (methotrexate 44 µM).

I123A: the “selection coefficient … (log2)” value (methotrexate 8.8 µM) was determined as 0.144 ± 0.027 and the “selection coefficient … (log2)” value (methotrexate 44 µM) came out at 0.267 ± 0.081.

For I123V, the “selection coefficient … (log2)” value (methotrexate 8.8 µM) worked out at 0.0179 ± 0.043 and the “selection coefficient … (log2)” value (methotrexate 44 µM) stood at 0.0905 ± 0.1.

With V85L, the “selection coefficient … (log2)” value (methotrexate 8.8 µM) is -0.197 ± 0.061 and the “selection coefficient … (log2)” value (methotrexate 44 µM) was -0.149 ± 0.14.

Regarding V85K, the “selection coefficient … (log2)” value reads like this: (methotrexate 8.8 µM) 0.279 ± 0.061; (methotrexate 44 µM) 0.399 ± 0.047.

Consider S31E, for which the “selection coefficient … (log2)” value (methotrexate 8.8 µM) amounted to 0.129 ± 0.024 and the “selection coefficient … (log2)” value (methotrexate 44 µM) is 0.153 ± 0.054.

S31D: the “selection coefficient … (log2)” value (methotrexate 8.8 µM) stood at 0.213 ± 0.062 and the “selection coefficient … (log2)” value (methotrexate 44 µM) turned out to be 0.167 ± 0.081.

As for S31G, the “selection coefficient … (log2)” value by setting is: (methotrexate 8.8 µM) -0.188 ± 0.091; (methotrexate 44 µM) -0.163 ± 0.075.

S48Y: the “selection coefficient … (log2)” value reads like this: (methotrexate 8.8 µM) -0.326 ± 0.12; (methotrexate 44 µM) -0.232 ± 0.14.

Consider L65K, for which the “selection coefficient … (log2)” value reads like this: (methotrexate 8.8 µM) -0.436 ± 0.18; (methotrexate 44 µM) -0.243 ± 0.084.

For L65P, the “selection coefficient … (log2)” value is -0.352 ± 0.047 (methotrexate 8.8 µM) and -0.168 ± 0.058 (methotrexate 44 µM).

Take E63I: the “selection coefficient … (log2)” value by setting is: (methotrexate 8.8 µM) -0.5 ± 0.037; (methotrexate 44 µM) -0.185 ± 0.093.

As for E63R, the “selection coefficient … (log2)” value reads like this: (methotrexate 8.8 µM) -0.476 ± 0.097; (methotrexate 44 µM) -0.293 ± 0.072.

E63V: the “selection coefficient … (log2)” value was -0.558 ± 0.071 (methotrexate 8.8 µM) and -0.268 ± 0.086 (methotrexate 44 µM).

With R119E, the “selection coefficient … (log2)” value is, setting by setting: (methotrexate 8.8 µM) 0.188 ± 0.042; (methotrexate 44 µM) 0.21 ± 0.08.

Regarding R119V, the “selection coefficient … (log2)” value reads like this: (methotrexate 8.8 µM) -0.414 ± 0.084; (methotrexate 44 µM) -0.304 ± 0.072.

For I190R, the “selection coefficient … (log2)” value (methotrexate 8.8 µM) was -0.168 ± 0.045 and the “selection coefficient … (log2)” value (methotrexate 44 µM) was -0.266 ± 0.13.

Take I190E: the “selection coefficient … (log2)” value was -0.133 ± 0.03 (methotrexate 8.8 µM) and -0.227 ± 0.17 (methotrexate 44 µM).

Regarding P168H, the “selection coefficient … (log2)” value (methotrexate 8.8 µM) was -0.149 ± 0.039 and the “selection coefficient … (log2)” value (methotrexate 44 µM) was -0.088 ± 0.13.

Turning to P168C, the “selection coefficient … (log2)” value is -0.195 ± 0.08 (methotrexate 8.8 µM) and -0.102 ± 0.0047 (methotrexate 44 µM).

For P168G, the “selection coefficient … (log2)” value was -0.00434 ± 0.043 (methotrexate 8.8 µM) and 0.00312 ± 0.096 (methotrexate 44 µM).

With L98K, the “selection coefficient … (log2)” value by setting is: (methotrexate 8.8 µM) -0.658 ± 0.053; (methotrexate 44 µM) -0.155 ± 0.035.

Turning to V181S, the “selection coefficient … (log2)” value is 0.132 ± 0.058 (methotrexate 8.8 µM) and 0.0867 ± 0.081 (methotrexate 44 µM).

On to S16W, for which the “selection coefficient … (log2)” value runs as follows: (methotrexate 8.8 µM) -0.201 ± 0.098; (methotrexate 44 µM) -0.23 ± 0.097.

On to S41E, for which the “selection coefficient … (log2)” value (methotrexate 8.8 µM) came out at 0.204 ± 0.015 and the “selection coefficient … (log2)” value (methotrexate 44 µM) came out at 0.237 ± 0.033.

Turning to L128K, the “selection coefficient … (log2)” value runs as follows: (methotrexate 8.8 µM) -0.776 ± 0.047; (methotrexate 44 µM) -0.272 ± 0.038.

Take L128G: the “selection coefficient … (log2)” value is, setting by setting: (methotrexate 8.8 µM) -0.665 ± 0.17; (methotrexate 44 µM) -0.268 ± 0.11.
